Out of some 420,000 compounds screened, about 50,000 (12%) were called active. This list was built around the results that the source calls inconclusive (neither active nor inactive); the mix of calls is not that of the screen. The call rests on the fitted dose curve; in most records, active means well fitted inhibition curve with a large enough effect; inconclusive means small, poorly fitted or top-dose-only effect; inactive means flat fitted curve, though single readings scatter. No potency is given beside an inconclusive call; the fits are too rough.
Assay: qHTS for Inhibitors of human tyrosyl-DNA phosphodiesterase 1 (TDP1): qHTS in cells in presence of CPT; further: nearly all actives have a fitted effect of over 55% in size
Details: chicken DT40 Tdp1-/-;hTDP1 cells + 20 nM CPT, ATP luminescence, 48 h; activity change, negative = growth inhibition: at 46.2 µM (top of the series) unless noted
How it was run: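 Cell growth measured by CellTiter-Glo luminescence after a minimum 48 h, 37 C compound exposure with 20 nM CPT in Tdp1-knockout DT40 cells stably expressing hTDP1, seeded 400/well; qHTS titration format.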
On the % scale 0 is the no-effect control and ±100 the full control effect; potency means the concentration at half of the fitted maximal effect; tags describe the fitted curve by direction and shape.

Row | SMILES | Potency | activity change, negative = growth inhibition
1 | Cc1ccccc1N=C1Nc2ccccc2CS1 | inconclusive [inhibitor, partial curve, poor fit] | –
2 | COc1ccc(Br)c2c1-c1nc(NC(=O)c3ccccc3F)sc1C2 | active: 20.6 µM | –
3 | CC1CCN(CCCOc2ccc(OCc3ccccc3)cc2)CC1 | inconclusive [inhibitor, single point] | –
4 | CN(C(=O)c1ccc(NC(=O)Cc2ccc(NC(=O)C3CCCN(C(=O)C4CCCCC4)C3)cc2)cc1)C1CC1 (centres undefined) | inconclusive [inhibitor, partial curve] | –
5 | CCOC(=O)c1ccc(NC(=O)C2(c3ccc(Cl)cc3)CCCC2)cc1 | active: 16.4 µM | –
6 | COC(=O)c1ccc(/C=N/N2CCN(Cc3ccccc3Cl)CC2)cc1 | inconclusive [inhibitor, single point] | –
7 | CCn1c(N2CCN(S(=O)(=O)c3ccc(OC)cc3)CC2)nc2ccccc21 | inconclusive [inhibitor, single point] | –
8 | CCOC(=O)C1=CNS(=O)(=O)NC1c1ccc(C[C@H](NC(=O)CNC(=O)CCc2ccccc2)C(N)=O)cc1 (some centres undefined) | inactive | –
9 | O=C1c2cc([N+](=O)[O-])ccc2-c2cc(Br)c(N=C(NO)C(F)(F)F)cc21 | inactive | –
10 | Cc1cccc(C)c1Nc1nnc(SCC(=O)c2ccc(Br)s2)s1 | inconclusive [inhibitor, single point] | –
11 | COc1ccc(NC(=O)/C=C/c2ccccc2[N+](=O)[O-])c(OC)c1 | inconclusive [inhibitor, single point] | –
12 | Cc1nc2ccc(S(=O)(=O)N(CC(=O)Nc3cccc(Cl)c3)Cc3ccccc3)cc2s1 | inconclusive [inhibitor, single point] | –
13 | COc1ccc(CCNC(=O)C2CC(c3ccc(C(F)(F)F)cc3)=NO2)cc1 (centres undefined) | inconclusive [inhibitor, single point] | –
14 | Cc1csc2nc(SCC(=O)N3CCN(c4ccccc4)CC3)[nH]c(=O)c12 | inconclusive [inhibitor, single point] | –
15 | CN(CC(=O)Nc1ccc(F)c(F)c1F)C(=O)Cc1ccc(S(=O)(=O)N2CCOCC2)s1 | inconclusive [inhibitor, partial curve] | –
16 | NS(=O)(=O)OCCCCCc1ccccc1 | inactive | –
17 | O=C(Nc1oc2ccccc2c(=O)c1-c1ccccc1)c1ccco1 | inactive | –
18 | CC1CCN(C(=O)c2ncn3c2c(=O)[nH]c2ccccc23)CC1 | inactive | –
19 | C[C@@H](c1ccccc1)N1C[C@H](COCc2ccccc2)Oc2cc(N3CCC[C@H]3CO)ccc2S1(=O)=O | inconclusive [inhibitor, single point] | –
20 | Cc1ccc(OCCN2CCN(c3ncnc4sc(C)c(C)c34)CC2)cc1 | active: 3.66 µM | –
21 | CCOc1ccc(NC(=O)CCn2c(=O)c3cccn3c3cccnc32)cc1 | inconclusive [inhibitor, single point] | –
22 | CC1CCN(C(=O)c2[nH]cnc2C(=O)Nc2ccon2)CC1 | inconclusive [inhibitor, single point] | –

Row | SMILES | Potency | activity change, negative = growth inhibition
23 | COc1ccccc1CNC(=O)CCc1nnc2ccc(NCCCN3CCCC3=O)nn12 | inactive | –
24 | COc1cccc2sc3ccc(NCCC4CCCN4C)cc3c(=O)c12 (centres undefined) | inconclusive [inhibitor, single point] | –
25 | CCc1ccc(NC(=O)COn2nnc3ccc(S(=O)(=O)N(C)C)cc32)cc1 | inconclusive [inhibitor, single point] | –
26 | CCN(CC(=O)NCc1cccs1)C(=O)c1cc(S(=O)(=O)N2CCCCC2)ccc1Cl | inconclusive [inhibitor, single point] | –
27 | O=C(COC(=O)CSc1ccc([N+](=O)[O-])cc1)NC1CCCCCCC1 | inconclusive [inhibitor, single point] | –
28 | Cc1cc(=O)nc2c3ccccc3n(CC(=O)NC(C)c3ccc4c(c3)OCCO4)n12 (centres undefined) | inconclusive [inhibitor, single point] | –
29 | Cc1cc2nn(-c3ccccc3)nc2cc1NC(=O)COc1ccc(Cl)cc1 | – | inconclusive: -22.2% [inhibitor]
30 | Cc1cccn2c(NC(=O)c3cccs3)c(-c3ccccc3)nc12 | inactive | –
31 | CC(C)(CSc1ccccn1)NS(=O)(=O)c1ccccc1 | inconclusive [inhibitor, single point] | –
32 | CC1CCC(NC(=O)CCc2cn(Cc3ccccc3Cl)c3ccccc23)CC1 (centres undefined) | inconclusive [inhibitor, single point] | –
33 | CC(C)Cc1nnc(NC(=O)c2ccc(N3CCCC3=O)cc2)s1 | inconclusive [inhibitor, single point] | –
34 | CC(C)c1ccc(NC(=S)N2CCN(C)CC2)cc1 | inconclusive [inhibitor, partial curve] | –
35 | CN(C)c1ccc(/C=C/c2ccc3cc(N)ccc3n2)cc1 | active: 7.08 µM | –
36 | COc1ccc(Cc2noc(CN3CCN(C4CCc5ccccc5C4)CC3)n2)cc1OC (centres undefined) | inconclusive [inhibitor, single point] | –
37 | c1ccc2c(Nc3nncs3)c3ccccc3nc2c1 | inconclusive [inhibitor, single point] | –
38 | CCCN(CCC)C(=O)Cn1c(=O)n(-c2ccc(C)c(C)c2)c(=O)c2c3c(sc21)CCCCC3 | inactive | –
39 | CCCN(CCC)S(=O)(=O)c1ccc(C(=O)Nc2ccc(S(=O)(=O)Nc3nnc(CC)s3)cc2)cc1 | inactive | –
40 | O=C(COc1ccc(Cl)cc1Cl)NC(=O)N1CCOCC1 | inactive | –
41 | COc1cc(CNc2ccc(N3CCN(C(C)=O)CC3)cc2)ccc1OCc1ccc(F)cc1 | inconclusive [inhibitor, single point] | –
42 | COc1ccccc1N1CCN(C(=O)c2cc(-c3ccc(C)cc3)on2)CC1 | inconclusive [inhibitor, single point] | –
43 | COc1ccc(/C=C/C(=O)c2nc3ccccc3n2CC(=O)c2ccc(OC)cc2)cc1 | inactive | –
44 | Cc1ncc(CO)c2c1Oc1nc(-c3ccc(F)cc3)nc(SCC(=O)N3CCCCC3)c1C2 | active: 16.4 µM | –
